Reference: PubChem BioAssay AID493208 (National Center for Advancing Translational Sciences (NCATS), 2011)
The campaign covered roughly 44,000 compounds. About 340 (0.77%) were called active. Not shown: some 5% with an inconclusive outcome. Calls come from the whole dose curve; as a rule, active = well fitted inhibition curve with a large enough effect; inconclusive = small, poorly fitted or top-dose-only effect; inactive = flat fitted curve, though single readings scatter. The list shows a part of the results.

experiment: Acumen qHTS Assay for Inhibitors of the mTORC1 Signaling Pathway in MEF (Tsc2-/-, p53-/-) Cells: Sytravon; settings: phospho-rpS6 immunofluorescence/PI, 24 h; series mostly up to 38.3 µM; activity change, negative = inhibition: at the top concentration; note: nearly all actives have a fitted effect of over 50% in size;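 for activity change, negative = inhibition: plate controls were DMSO for no effect and rapamycin for full effect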
Outline: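 Compounds act on Tsc2-/-, p53-/- fibroblasts carrying an empty vector for 24 h before fixation and dual staining for phospho-S6 and DNA (propidium iodide). Values are percentages of cells above a rapamycin-defined pS6/PI threshold.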
Potency is the fitted concentration of half-maximal effect.

Row | Compound | activity change, negative = inhibition | Potency
1 | CCn1c(=O)c2cc(C(=O)NCCCN3CCN(C)CC3)sc2c2ccccc21 | inactive: 1.47% | –
2 | Cc1ccccc1NC(=O)c1c(C)oc2ccc(O)c(CN3CCOCC3)c12 | inactive: -9.27% | –
3 | O=C(CSc1n[nH]c(-c2ccccc2Cl)n1)NCc1ccc(F)cc1 | inactive: 5.87% | –
4 | NC(=O)c1c(NC(=O)CS(=O)(=O)c2ccc(Cl)cc2)sc2c1CCCCC2 | inactive: -1.24% | –
5 | COc1ccc(S(=O)(=O)NCc2nc3nc(C)cc(C)n3n2)cc1 | inactive: -1.68% | –
6 | Cc1ccc(Nc2c(-c3ccc(Br)o3)nc3ccccn23)cc1 | inactive: 0.49% | –
7 | O=C(NCCCN1CCN(c2cccc(Cl)c2)CC1)c1sc2ncccc2c1-n1cccc1 | inactive: -10.6% | –
8 | Cc1ccc(-c2nc(CS(=O)(=O)CC(=O)Nc3ccc(Br)cc3F)c(C)o2)cc1 | inactive: -12.2% | –
9 | CCC(=O)Oc1c(Sc2ccc(Cl)cc2)c(C)nn1-c1ccccc1 | inactive: -5.74% | –
10 | Cc1ccc(Cl)cc1N1CCN(C(=O)Cn2ncc3c4ccccc4n(C)c3c2=O)CC1 | inactive: 0.0796% | –
11 | CCOc1ccc(NC(=O)CSC2=Nc3ccccc3C3=NC(CCC(=O)NCc4ccco4)C(=O)N23)cc1 (stereo not given) | inactive: 0.512% | –
12 | CC1CCCN(c2nc3c(-c4ccc(Cl)cc4)nnn3c3ccccc23)C1 (stereo not given) | inactive: 6.19% | –
13 | Cc1cc(Cl)ccc1NS(=O)(=O)c1c(C(=O)N2CCC(C)CC2)c(C)n(C)c1C | inactive: 5.92% | –
14 | COc1ccc2oc(=O)c(-c3nnc(-c4ccc(C)cc4)o3)cc2c1 | inactive: 12.4% | –
15 | Cc1cc2c(cc1S(=O)(=O)Nc1ccc(OC(F)(F)F)cc1)OCC(=O)N2 | inactive: -2.67% | –
16 | CCN(CC)S(=O)(=O)c1ccc2c(c1)N(CC(=O)NCc1ccccc1)C(=O)C1CCCCN21 (stereo not given) | inactive: 0% | –
17 | O=C(NCCc1csc(-c2cccnc2)n1)c1cccc(Cl)c1 | inactive: 2.21% | –
18 | CCOc1ccc(CC(=O)NCCc2sc3nc(-c4ccc(F)cc4)nn3c2C)cc1 | inactive: -4.28% | –
19 | Cc1ccccc1Cn1c(SCc2ccc(C(=O)NC3CCCCC3)cc2)nc2ccncc21 | inactive: -1.21% | –
20 | Cc1nc(SCc2cccc(Cl)c2)nc2c1CCCC2 | inactive: -0.0966% | –
21 | CC(C)N(Cc1nc(-c2ccc(Cl)cc2)no1)C(=O)c1ccc(C(C)(C)C)cc1 | inactive: -5.45% | –
22 | CC1=C(c2ccc(Cl)cc2)S(=O)(=O)N=C1N1CCN(c2cccc(C)c2C)CC1 | inactive: 3.81% | –
23 | Cc1cccc(NC(=O)CSc2nc3ccc(NC(=O)c4ccccc4)cc3s2)c1 | inactive: -9.81% | –
24 | COc1cccc(CN2C(=O)c3ccccc3Sc3ccc(C(=O)OCc4ccco4)cc32)c1 | inactive: -2.26% | –

Row | Compound | activity change, negative = inhibition | Potency
25 | Cc1ccc(CNc2nnc(C)c3nnn(Cc4ccc(F)cc4)c23)cc1 | inactive: 2.85% | –
26 | CC(=O)N1c2ccc(S(=O)(=O)N3CCCCCC3)cc2CC1C(=O)NCc1cccc(C)c1 (stereo not given) | inactive: 0% | –
27 | COc1cc(NC(=O)Cn2c(=O)cc(C)c3c(C)nn(-c4ccc(C)cc4)c32)cc(OC)c1 | inactive: -7.47% | –
28 | CCOc1ccc(-c2cc3nc(C4CCN(C(=O)OC(C)(C)C)CC4)c(C(=O)Nc4cccc(CC)c4)cn3n2)cc1 | inactive: 1.73% | –
29 | Fc1ccc(NCc2ccccc2-c2nnc(-c3ccccc3Cl)o2)cc1 | inactive: -9.27% | –
30 | CCSc1nc2n(n1)C(c1ccc(Cl)cc1Cl)C(C(=O)Nc1ccccc1C)=C(C)N2 (stereo not given) | inactive: 3.24% | –
31 | CC(C)(C)c1ccc(-c2nc(NC(=O)CSc3ncnc4sc5c(c34)CCCC5)ns2)cc1 | inactive: -3.71% | –
32 | Cc1ccc(-n2ccn(CC(=O)NCCc3ccccc3)c(=O)c2=O)cc1C | inactive: 3.17% | –
33 | CCCCOc1ccc(C(=O)N(Cc2ccc(N(C)C)cc2)Cc2ccco2)cc1 | inactive: -8.55% | –
34 | Cc1ccc(-n2ncc3c(NCc4ccccc4)ncnc32)cc1Cl | inactive: 7.55% | –
35 | CCc1ccc(NC(=O)CSc2nccn2-c2ccc(F)cc2)cc1 | inactive: -22.3% | –
36 | COc1ccc(N2CC(NC(=O)/C=C\c3ccc4c(c3)OCO4)CC2=O)cc1OC (stereo not given) | inactive: -1.21% | –
37 | COc1ccc(NC(=O)CN(C)S(=O)(=O)c2ccc3c(c2)CCCN3C(C)=O)cc1 | inactive: 6.96% | –
38 | CCc1ccccc1NC(=O)Cn1cc(S(=O)(=O)N2CCCC2)c(S(=O)(=O)N2CCCC2)c1 | inactive: 7.07% | –
39 | O=C(c1ccco1)N(Cc1cccnc1)c1nc2c(F)cc(F)cc2s1 | inactive: -10.3% | –
40 | COc1ccccc1NC(=O)CSc1nncn2c1cc1sccc12 | inactive: 2.05% | –
41 | CCOCCCNC(=O)C(c1ccccc1)N(Cc1ccc2c(c1)OCO2)C(=O)c1ccc(NC(C)=O)cc1 (stereo not given) | inactive: 5.79% | –
42 | Cc1ccccc1CNC(=O)c1ccc2nc(SCc3ccc(F)cc3)n(C)c2c1 | inactive: -0.198% | –
43 | CCC(=O)C1=C(c2ccc(F)cc2)N(C(=O)CC)n2cnnc2S1 | – | active: 11.7 µM
44 | Cc1ccccc1CN1C(=O)c2ccccc2S(=O)c2ccc(C(=O)NCc3ccc(Cl)cc3)cc21 (stereo not given) | inactive: 1.17% | –
45 | CCCOc1ccc(-c2cccc(NS(=O)(=O)c3ccccc3)c2)nn1 | inactive: -6.24% | –
46 | CCc1ccccc1NC(=O)CN(c1ccccc1)S(=O)(=O)c1ccsc1C(=O)OC | inactive: -8.12% | –
47 | O=C(NCc1ccc2c(c1)OCO2)c1ccc2c(c1)N(Cc1ccccc1F)C(=O)c1ccccc1S2 | inactive: -7.1% | –
48 | Cc1ccc2cccc(NC(=O)c3ccc(OC(C)C)cc3)c2n1 | inactive: 0% | –

Row | Compound | activity change, negative = inhibition | Potency
49 | Cc1ccc(CNC(=O)Nc2cc(C(=O)NCc3ccc(C(C)C)cc3)ccc2N2CCCC2)cc1 | inactive: 0% | –
50 | CC(C)(C)OC(=O)N1CCC(c2c(C(=O)NCCN3CCc4ccccc4C3)cnn2-c2ccc(F)cc2)CC1 | inactive: -5.18% | –
51 | CCCCOc1ccc(C(=O)Nc2ccc(-c3cc4ccccc4oc3=O)cc2)cc1 | inactive: 3.68% | –
52 | Cc1c(Cl)cccc1NC(=O)c1ccc2c(c1)CCCN2S(C)(=O)=O | inactive: -7.15% | –
53 | CC(C)c1ccc(OCC(=O)NCCS(=O)(=O)N2CCN(c3ccc(F)cc3)CC2)cc1 | inactive: 0.983% | –
54 | COc1ccccc1C(=O)N1c2ncnn2C2(CCCCC2)[C@@H]2CCCC[C@@H]21 | inactive: -6.35% | –
55 | COc1ccc(Cn2c(C(=O)O)c(CNC3CCCC3)c3ccc(OC)cc32)cc1 | inactive: -6.29% | –
56 | Cc1cc(C)cc(-n2c(C)cc(C(=O)C(=O)Nc3ccccc3F)c2C)c1 | inactive: 0.738% | –
57 | CCN1C(=O)c2ccccc2Sc2ccc(NC(=O)N3CCN(c4cc(C)ccc4C)CC3)cc21 | inactive: -0.235% | –
58 | CCOC(=O)c1ccc(NC(=O)C(CC)Sc2nc3ccncc3[nH]2)cc1 (stereo not given) | inactive: 2.76% | –
59 | CCOc1ccc(-c2nn(-c3ccccc3)cc2C2NC(=O)NC(C)=C2C(=O)OC(C)C)cc1 (stereo not given) | inactive: 11.5% | –
60 | O=C(NCC(c1ccc(Cl)cc1)N1CCOCC1)c1ccccc1F (stereo not given) | inactive: -0.775% | –
61 | COc1cccc(C2CC(=O)Nc3c2c(=O)[nH]c2nc4ccccc4n32)c1 (stereo not given) | inactive: -1.19% | –
62 | COc1ccc(C(=O)NCC(c2ccc3c(c2)OCO3)N2CCN(c3ccccc3F)CC2)cc1 (stereo not given) | inactive: 1.18% | –
63 | O=C(COc1ccc([N+](=O)[O-])cc1)Nc1nc2c(s1)CCCC2 | inactive: -6.66% | –
64 | Cc1ccccc1-c1nnn(CC(=O)Nc2sc3c(c2C#N)CCC(C(C)(C)C)C3)n1 (stereo not given) | inactive: 2.54% | –
65 | CCc1ccc(NC(=O)Cn2c(=O)n(CCCCC(=O)NCCc3ccc(Cl)cc3)c(=O)c3ccccc32)cc1 | inactive: -19.7% | –
66 | O=c1[nH]c2ccc(NCc3ccc(-c4ccc(Br)cc4)o3)cc2[nH]1 | inactive: -23.4% | –
67 | CCOC(=O)c1c(NC(=O)c2nc(S(C)(=O)=O)ncc2Cl)sc(C(C)=O)c1C | – | active: 3.69 µM
68 | Cc1ccc2ncc(C(=O)Nc3ccc(OC(F)(F)F)cc3)c(=O)n2c1 | inactive: -1.48% | –
69 | COc1cc(OC)cc(-c2nc(-c3ccc4c(c3)[nH]c(=O)n4C)no2)c1 | inactive: -0.987% | –
70 | O=C1CCCc2cc(S(=O)(=O)N3CCCC(C(=O)NCc4ccc(Cl)cc4)C3)ccc2N1 (stereo not given) | inactive: -0.433% | –
71 | O=C(Nc1ccccc1C(F)(F)F)n1ncc2cc(Cl)ccc21 | inactive: -1.18% | –
72 | COc1ccc2cc3c(N)nn(C(=O)c4ccc(OC)c(OC)c4)c3nc2c1 | inactive: 1.14% | –

Row | Compound | activity change, negative = inhibition | Potency
73 | Cc1ccc(-c2cc(C(=O)NCc3ccccc3Cl)c3ccccc3n2)cc1C | inactive: 9.73% | –
74 | CCOC(=O)c1[nH]c2ccccc2c1NC(=O)c1ccc(Br)cc1 | inactive: -27.2% | –
75 | COc1cccc(CNC(=O)C2CCN(S(=O)(=O)c3ccc4c(c3)CCCN4C(C)=O)CC2)c1 | inactive: -6.95% | –
76 | CCOc1ccc(-c2nc3c(c(SCC(=O)N4CCCCC4)n2)Cc2cccc(OC)c2O3)cc1 | inactive: 3.37% | –
77 | CCCn1c2ccccc2c2cnn(CC(=O)N3CCN(c4ccccc4)CC3)c(=O)c21 | inactive: 0.512% | –
78 | Cc1cccc(CSc2ncc(Cl)c(C(=O)Nc3nc4ccc(F)cc4s3)n2)c1 | inactive: 4.18% | –
79 | CCOc1ccc(NC(=O)c2ncoc2-c2ccco2)cc1 | inactive: 0% | –
80 | COc1cc(NC(=O)Cn2cc(C(=O)c3ccc(F)cc3)c(=O)c3ccc(C)nc32)cc(OC)c1 | inactive: -6.95% | –
81 | Cc1ccc2nc3c(cc(C#N)c(=O)n3-c3nnc(SCc4ccccc4)s3)c(=O)n2c1 | inactive: -8.16% | –
82 | O=C(Cn1c(=O)nc(-c2ccccc2)c2cc(Cl)ccc21)Nc1ccc(F)c(Cl)c1 | inactive: 3.01% | –
83 | CC(C)NC(=O)c1ccc(NC(=O)N2CCCCc3ccccc32)cc1 | inactive: 3.22% | –
84 | COc1cccc(CNC(=O)c2ccc(-n3c(C)cc4c3CCC(C)C4)cc2)c1 (stereo not given) | inactive: -13.9% | –
85 | CCN(Cc1ccccc1)C(=O)c1cnn(-c2ccc(F)cc2)c1-n1cccc1 | inactive: -7.32% | –
86 | Cc1ccc(NC(=O)c2cnn3c2NC(c2ccccc2)=CC3c2ccccc2)cc1 (stereo not given) | inactive: 5.14% | –
87 | CCCn1c2ccccc2c2nnc(SCC(=O)Nc3cccc(C(C)=O)c3)nc21 | inactive: -13% | –
88 | COc1ccccc1OC(C)C(=O)Nc1cccc(-c2nc3ccccc3o2)c1 (stereo not given) | inactive: 0.0968% | –
89 | CC(=O)c1ccc(NC(=O)Cn2nc(N3CCN(c4ccccc4)CC3)ccc2=O)cc1 | inactive: -1.66% | –
90 | CC(=O)c1sc(N2C(=O)c3oc4ccccc4c(=O)c3C2c2ccc(C)cc2)nc1C (stereo not given) | inactive: -0.61% | –
91 | O=C(NCc1cccnc1)c1nn(-c2ccc(F)cc2)nc1CO | inactive: -0.74% | –
92 | CCCSc1nc2c([nH]c3ccccc32)c(=O)n1C | inactive: 0.326% | –
93 | COc1ccccc1CNC(=O)CSC1=Nc2ccccc2N=C(c2ccc(F)cc2)C1 | inactive: -16.5% | –
94 | CCc1ccc(NS(=O)(=O)c2ccc3[nH]cc(C(=O)NCCCOC(C)C)c(=O)c3c2)cc1 | inactive: 0.967% | –
95 | Cc1ccc(Cl)cc1N1CCN(S(=O)(=O)c2ccc3c(c2)CCN3C(=O)C2CCC2)CC1 | inactive: -5.66% | –
